The IC50 comes from the fitted curve, where viability falls to half of the control; a fit beyond the top or the lowest dose is shown as a bound at that dose. AUC, from the same fit, is the share of area under the viability curve across the 256-fold dose range: 1 means no effect, lower means more sensitive. For some of these results: Where the top dose is marked as inferred, it was calculated from the reported fits. For some of these results: An entry number marks a drug with two screens in the source, which often give different values.
Legend:
Test in all cases: Viability of human cancer cell lines after 72 h of drug (GDSC screen)
XMD13-2 = compound: O=C(NC1CC1)c1cccc(-c2ccc3c(NC(=O)C4CC4)n[nH]c3c2)c1 [XMD13-2]; conditions: top dose 10.24 µM; top dose inferred
Protocol: (§1)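 Human cancer cell lines in 384-well plates, medium with 10% serum, drug for 72 h over a 256-fold dose range (nine 2-fold or five 4-fold steps up to the top dose). Adherent lines were fixed and stained with the nucleic acid dye Syto60, suspension lines read with resazurin; signal relative to control wells, capped at 0 and 100%. One two-parameter sigmoid per drug and line, fitted in a mixed model over all curves with the slope shared within a line.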

SNX-2112 = compound: CC1(C)CC(=O)c2c(C(F)(F)F)nn(-c3ccc(C(N)=O)c(N[C@H]4CC[C@H](O)CC4)c3)c2C1 [SNX-2112]; conditions: top dose 2.56 µM
Protocol: as §1

PF-562271 = compound: CN(c1ncccc1CNc1nc(Nc2ccc3c(c2)CC(=O)N3)ncc1C(F)(F)F)S(C)(=O)=O [PF-562271]; conditions: top dose 2.56 µM; top dose inferred
Protocol: as §1

Vinblastine = compound: CC[C@]1(O)C[C@@H]2CN(CCc3c([nH]c4ccccc34)[C@@](C(=O)OC)(c3cc4c(cc3OC)N(C)[C@H]3[C@@](O)(C(=O)OC)[C@H](OC(C)=O)[C@]5(CC)C=CCN6CC[C@]43[C@@H]65)C2)C1 [Vinblastine]; conditions: top dose 0.1 µM; top dose inferred
Protocol: as §1

Afatinib = compound: CN(C)C/C=C/C(=O)Nc1cc2c(Nc3ccc(F)c(Cl)c3)ncnc2cc1O[C@H]1CCOC1 [Afatinib]
Protocol: as §1

[1] = top dose 0.5 µM, screen: GDSC drug entry 1032
[2] = top dose 10 µM, screen: GDSC drug entry 1377, top dose inferred

Cell Line | AUC (XMD13-2) | IC50 (XMD13-2) | AUC (SNX-2112) | IC50 (SNX-2112) | AUC (PF-562271) | IC50 (PF-562271) | AUC (Vinblastine) | IC50 (Vinblastine) | AUC (Afatinib; [1]) | IC50 (Afatinib; [1]) | AUC (Afatinib; [2]) | IC50 (Afatinib; [2])
NCI-H1155 (large cell lung carcinoma, suspension) | 0.97 | > 10200 nM | 0.556 | 221 nM | 0.99 | > 2560 nM | 0.836 | 50.1 nM | 0.985 | > 500 nM | 0.993 | > 10000 nM
NCI-H1304 (small cell lung carcinoma, suspension) | 0.925 | > 10200 nM | 0.925 | > 2560 nM | 0.937 | > 2560 nM | 0.967 | > 100 nM | 0.988 | > 500 nM | 0.953 | > 10000 nM
NCI-H1395 (lung adenocarcinoma, adherent) | 0.965 | > 10200 nM | 0.86 | > 2560 nM | 0.973 | > 2560 nM | 0.469 | 5.01 nM | 0.976 | > 500 nM | 0.964 | > 10000 nM
NCI-H1417 (small cell lung carcinoma, suspension) | 0.882 | > 10200 nM | 0.632 | 397 nM | 0.942 | > 2560 nM | 0.53 | 7.66 nM | 0.973 | > 500 nM | 0.951 | > 10000 nM
NCI-H1435 (lung adenocarcinoma, semi-adherent) | 0.993 | > 10200 nM | 0.945 | > 2560 nM | 0.99 | > 2560 nM | 0.965 | > 100 nM | 0.948 | > 500 nM | 0.991 | > 10000 nM
NCI-H1436 (small cell lung carcinoma, suspension) | 0.924 | > 10200 nM | 0.825 | 1830 nM | 0.975 | > 2560 nM | 0.857 | > 100 nM | 0.986 | > 500 nM | 0.926 | > 10000 nM
NCI-H1437 (lung adenocarcinoma, adherent) | 0.897 | > 10200 nM | 0.895 | > 2560 nM | 0.939 | > 2560 nM | 0.542 | 8.17 nM | 0.985 | > 500 nM | 0.985 | > 10000 nM
NCI-H1563 (lung adenocarcinoma, adherent) | 0.97 | > 10200 nM | 0.985 | > 2560 nM | 0.985 | > 2560 nM | 0.652 | 18 nM | 0.968 | > 500 nM | 0.934 | > 10000 nM
NCI-H1568 (lung adenocarcinoma, adherent) | 0.967 | > 10200 nM | 0.93 | > 2560 nM | 0.903 | > 2560 nM | 0.736 | 35.5 nM | 0.813 | 357 nM | 0.479 | 542 nM
NCI-H1581 (large cell lung carcinoma, semi-adherent) | 0.885 | 9640 nM | 0.876 | 2180 nM | 0.986 | > 2560 nM | 0.475 | 5.39 nM | 0.99 | > 500 nM | 0.979 | > 10000 nM
NCI-H1648 (lung adenocarcinoma, adherent) | 0.921 | > 10200 nM | 0.725 | 727 nM | 0.906 | > 2560 nM | 0.496 | 6.08 nM | 0.837 | 365 nM | 0.718 | 2710 nM
NCI-H1651 (lung adenocarcinoma, adherent) | 0.983 | > 10200 nM | 0.945 | > 2560 nM | 0.952 | > 2560 nM | 0.704 | 24.6 nM | 0.983 | > 500 nM | 0.961 | > 10000 nM
NCI-H1666 (lung adenocarcinoma, semi-adherent) | 0.981 | > 10200 nM | 0.774 | 1100 nM | 0.985 | > 2560 nM | 0.673 | 19.9 nM | 0.609 | 64.1 nM | 0.514 | 683 nM
NCI-H1688 (small cell lung carcinoma, adherent) | 0.963 | > 10200 nM | 0.814 | 1570 nM | 0.963 | > 2560 nM | 0.744 | 34 nM | 0.985 | > 500 nM | 0.984 | > 10000 nM
NCI-H1693 (lung adenocarcinoma, adherent) | 0.954 | > 10200 nM | 0.961 | > 2560 nM | 0.958 | > 2560 nM | 0.772 | 65.1 nM | 0.843 | > 500 nM | 0.712 | 3640 nM
NCI-H1694 (small cell lung carcinoma, suspension) | 0.929 | > 10200 nM | 0.619 | 339 nM | 0.977 | > 2560 nM | 0.777 | 40 nM | 0.988 | > 500 nM | 0.973 | > 10000 nM

Cell Line | AUC (XMD13-2) | IC50 (XMD13-2) | AUC (SNX-2112) | IC50 (SNX-2112) | AUC (PF-562271) | IC50 (PF-562271) | AUC (Vinblastine) | IC50 (Vinblastine) | AUC (Afatinib; [1]) | IC50 (Afatinib; [1]) | AUC (Afatinib; [2]) | IC50 (Afatinib; [2])
NCI-H1755 (lung adenocarcinoma, adherent) | 0.984 | > 10200 nM | 0.428 | 98.7 nM | 0.967 | > 2560 nM | 0.663 | 19.1 nM | 0.983 | > 500 nM | 0.947 | > 10000 nM
NCI-H1770 (non-small cell lung carcinoma, suspension) | 0.978 | > 10200 nM | 0.358 | 68.6 nM | 0.921 | > 2560 nM | 0.9 | > 100 nM | 0.992 | > 500 nM | 0.958 | > 10000 nM
NCI-H1792 (lung adenocarcinoma, adherent) | 0.95 | > 10200 nM | 0.764 | 845 nM | 0.943 | > 2560 nM | 0.332 | 2.24 nM | 0.99 | > 500 nM | 0.963 | > 10000 nM
NCI-H1836 (small cell lung carcinoma, suspension) | 0.901 | > 10200 nM | 0.892 | > 2560 nM | 0.961 | > 2560 nM | 0.973 | > 100 nM | 0.988 | > 500 nM | 0.961 | > 10000 nM
NCI-H1838 (lung adenocarcinoma, adherent) | 0.984 | > 10200 nM | 0.961 | > 2560 nM | 0.983 | > 2560 nM | 0.859 | > 100 nM | 0.868 | > 500 nM | 0.932 | > 10000 nM
NCI-H1869 (lung squamous cell carcinoma, adherent) | 0.976 | > 10200 nM | 0.88 | > 2560 nM | 0.95 | > 2560 nM | 0.809 | 60.8 nM | 0.923 | > 500 nM | 0.915 | > 10000 nM
NCI-H1876 (small cell lung carcinoma, adherent) | 0.912 | > 10200 nM | 0.83 | 1630 nM | 0.987 | > 2560 nM | 0.572 | 9.88 nM | 0.983 | > 500 nM | 0.965 | > 10000 nM
NCI-H1944 (lung adenocarcinoma, adherent) | 0.915 | > 10200 nM | 0.433 | 104 nM | 0.96 | > 2560 nM | 0.61 | 12.8 nM | 0.927 | > 500 nM | 0.927 | > 10000 nM
NCI-H2009 (lung adenocarcinoma, adherent) | 0.975 | > 10200 nM | 0.89 | > 2560 nM | 0.909 | > 2560 nM | 0.665 | 18.5 nM | 0.976 | > 500 nM | 0.978 | > 10000 nM
NCI-H2023 (lung adenocarcinoma, adherent) | 0.982 | > 10200 nM | 0.899 | > 2560 nM | 0.951 | > 2560 nM | 0.806 | 66.4 nM | 0.955 | > 500 nM | 0.93 | > 10000 nM
NCI-H2029 (small cell lung carcinoma, adherent) | 0.957 | > 10200 nM | 0.856 | 1750 nM | 0.989 | > 2560 nM | 0.92 | > 100 nM | 0.992 | > 500 nM | 0.992 | > 10000 nM
NCI-H2052 (mesothelioma, adherent) | 0.968 | > 10200 nM | 0.906 | > 2560 nM | 0.932 | > 2560 nM | 0.653 | 18.7 nM | 0.971 | > 500 nM |  | 
NCI-H2081 (small cell lung carcinoma, suspension) | 0.92 | > 10200 nM | 0.988 | > 2560 nM | 0.932 | > 2560 nM | 0.752 | 34.9 nM | 0.985 | > 500 nM | 0.988 | > 10000 nM
NCI-H2087 (lung adenocarcinoma, semi-adherent) | 0.917 | > 10200 nM | 0.556 | 231 nM | 0.874 | > 2560 nM | 0.704 | 24.6 nM | 0.982 | > 500 nM | 0.957 | > 10000 nM
NCI-H2135 (non-small cell lung carcinoma, adherent) | 0.939 | > 10200 nM | 0.37 | 71.1 nM | 0.969 | > 2560 nM | 0.962 | > 100 nM | 0.991 | > 500 nM | 0.99 | > 10000 nM
NCI-H2141 (small cell lung carcinoma, suspension) | 0.952 | > 10200 nM | 0.898 | > 2560 nM | 0.967 | > 2560 nM | 0.894 | > 100 nM | 0.991 | > 500 nM | 0.975 | > 10000 nM

From the supplement of paper PMC4967469
